# Data published in article PMC4336329 (PLoS ONE, 2015).
# The whole screen tested about 310,000 compounds, of which about 2,200 (0.71%) showed an effect of 50% or more. Effects have a minus sign here. This is one part of the list.
# Target: human ether-à-go-go-related gene (hERG) potassium channel (human, UniProt Q12809)
# Assay: primary screen, population patch clamp on CHO cells stably expressing hERG
# Chain of human ether-à-go-go-related gene (hERG) potassium channel (Q12809 whole entry, looked up): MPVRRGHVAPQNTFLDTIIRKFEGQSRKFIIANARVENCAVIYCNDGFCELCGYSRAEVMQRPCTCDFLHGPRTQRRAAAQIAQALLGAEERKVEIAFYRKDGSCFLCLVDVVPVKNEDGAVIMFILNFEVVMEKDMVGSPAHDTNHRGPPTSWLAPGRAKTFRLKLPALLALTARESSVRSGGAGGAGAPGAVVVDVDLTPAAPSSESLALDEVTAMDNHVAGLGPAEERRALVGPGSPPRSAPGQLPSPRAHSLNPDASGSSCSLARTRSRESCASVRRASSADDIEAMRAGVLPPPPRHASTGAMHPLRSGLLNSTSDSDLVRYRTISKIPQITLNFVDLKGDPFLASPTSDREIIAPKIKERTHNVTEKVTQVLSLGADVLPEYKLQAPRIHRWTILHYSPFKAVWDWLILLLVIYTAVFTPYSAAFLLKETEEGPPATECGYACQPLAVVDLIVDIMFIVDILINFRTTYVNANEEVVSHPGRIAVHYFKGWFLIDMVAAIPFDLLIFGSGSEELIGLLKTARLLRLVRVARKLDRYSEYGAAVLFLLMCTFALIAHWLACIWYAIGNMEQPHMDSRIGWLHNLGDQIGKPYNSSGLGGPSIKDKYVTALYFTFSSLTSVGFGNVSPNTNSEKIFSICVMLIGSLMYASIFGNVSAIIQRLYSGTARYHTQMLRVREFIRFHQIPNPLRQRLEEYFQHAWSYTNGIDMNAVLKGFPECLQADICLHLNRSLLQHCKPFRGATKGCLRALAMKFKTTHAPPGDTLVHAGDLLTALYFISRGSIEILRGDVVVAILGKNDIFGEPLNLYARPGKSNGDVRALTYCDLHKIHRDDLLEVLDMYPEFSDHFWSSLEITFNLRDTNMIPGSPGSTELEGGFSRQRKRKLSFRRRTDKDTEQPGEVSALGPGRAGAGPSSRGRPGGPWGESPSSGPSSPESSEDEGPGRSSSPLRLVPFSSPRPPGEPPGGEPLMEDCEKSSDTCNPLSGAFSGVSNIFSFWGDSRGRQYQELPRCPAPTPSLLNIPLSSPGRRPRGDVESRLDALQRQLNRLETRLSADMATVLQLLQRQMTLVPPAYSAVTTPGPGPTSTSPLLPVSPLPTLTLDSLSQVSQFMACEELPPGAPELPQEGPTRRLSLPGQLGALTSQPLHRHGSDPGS
row,Compound,"hERG current change (%, negative = inhibition) at 1uM [%]"
1,CCOc1ccc(Nc2nc(-c3cccnc3)cs2)cc1,21
2,CCOc1ccc(N(Cc2cc3cc(C)ccc3[nH]c2=O)C(=O)COC)cc1,6.75
3,C(#CCN1CCOCC1)COCCCOC(c1ccccc1)c1ccccc1,5.38
4,Cc1ccnc(OC(C(=O)O)C(OCc2ccccc2)(c2ccccc2)c2ccc(C(F)(F)F)cc2)n1 (stereo not drawn),16.8
5,CCNC(=S)Nc1ccc(Cc2nc3ccccc3[nH]2)cc1,10.2
6,COc1ccccc1N1CCN(C(=O)c2cccc(N3C(=O)NC4CC3(C)Oc3c(OC)cccc34)c2)CC1 (stereo not drawn),9.13
7,CCOC(=O)N1CCC(n2c(SCC(=O)Nc3ccccc3OC)nc3ccccc3c2=O)CC1,-7.24
8,CCCN(C(=O)Cn1ncc2c(=O)oc3ccccc3c21)c1cccc(C)c1,5.92
9,O=C(NCCO)c1ccc2nc(-c3ccco3)c(-c3ccco3)nc2c1,10.2
10,Cc1ccc(NC(=O)c2ccccc2)cc1C,20.5
11,COc1cc(/C=C/C(=O)OCc2c(C)noc2C)ccc1OC(F)F,9.04
12,COc1ccc(CCNC(=O)c2cc(-c3cc(C)c(C)cc3O)n[nH]2)cc1OC,-9.33
13,N=c1c2ccccc2nnn1-c1ccc(C(F)(F)F)cc1,10.3
14,CCNC(=O)N(C(=O)NCC)n1c(C)nnc1C,11.1
15,COc1ccccc1CNC(=O)CN1C(=O)NC(C)(c2ccc(C(C)(C)C)cc2)C1=O (stereo not drawn),20.2
16,CC1(C)Cc2ccccc2C(/C(=N/O)C(N)=O)=N1,12.9
17,Clc1ccccc1OCc1nn[nH]n1,18.7
18,Cc1oc(-c2ccccc2F)nc1CS(=O)CC(=O)NCc1ccc(F)cc1 (stereo not drawn),9.84
19,CCOc1ccc(NC(=O)CN2C(=O)CCSc3ccc(S(=O)(=O)N4CCCC4)cc32)cc1,5
20,CC(OC(=O)/C(C#N)=C/c1ccc(N(C)C)cc1)C(=O)NCc1ccco1 (stereo not drawn),6.56
21,Cl.c1ccc(CCCN2CCN(CCOC(c3ccccc3)c3ccccc3)CC2)cc1,-41.9
22,O=S(=O)(c1cccc(-c2cn3cccnc3n2)c1)N1CCOCC1,2.86
23,COc1ccc(CCN(C)Cc2ccc(C(=O)Nc3ccccc3)cc2)cc1OC,-23.4
24,C=CCn1c(C)c(C=C2C(=O)NC(=O)NC2=O)c2ccccc21,11.7
